Data taken from PubChem BioAssay AID1240 (Sanford-Burnham Center for Chemical Genomics, 2008).
In all, about 50,000 compounds went through this assay and about 800 (1.6%) showed an effect of 50% or more. The list shows a part of the results.

What follows are compounds tested against Bcl-2-like protein 10 (Homo sapiens) (UniProt Q9HD36) (assay: Phenotype converters, Bcl-B/TR3 peptide binding displacement, primary biochemical FP (AID 1240;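 also: 0% = Bcl-B with tracer peptide and DMSO and 100% = tracer peptide lacking Bcl-B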)). Conditions: GST-Bcl-B / FITC-TR3 peptide fluorescence polarization; stronger effect = higher value; compound at 3.75 mg/L.
UniProt Q9HD36, sequence (Q9HD36 whole entry, looked up): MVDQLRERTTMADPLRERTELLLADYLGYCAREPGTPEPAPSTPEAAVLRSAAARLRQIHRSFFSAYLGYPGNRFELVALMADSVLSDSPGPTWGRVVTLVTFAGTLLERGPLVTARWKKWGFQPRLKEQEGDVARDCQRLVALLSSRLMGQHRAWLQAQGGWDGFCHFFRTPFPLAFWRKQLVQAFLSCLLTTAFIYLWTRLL
Compound O=C(COc1ccccc1)Nc1ccc(NC(=O)c2ccco2)cc1 has a displacement of -9.4%. In the case of Brc1ccc(Nc2ccc3ccccc3n2)cc1, the displacement is reported as 1.2%. Cc1ccc(CSCCNC(=O)CN(c2cccc([N+](=O)[O-])c2)S(=O)(=O)c2ccccc2)cc1 showed a displacement of -4.4%. Work on COC(=O)c1ccccc1-c1ccc(/C=C2/SC(=S)NC2=O)o1 yielded a displacement of 15.2%. COC(=S)N/C(=N/S(=O)(=O)c1ccc(Br)cc1)c1ccccc1 showed a displacement of 7.2%. Compound OC(CN1CCCCC1)c1ccc2c(c1)OCCCO2 (centres undefined) has a displacement of -6%. Work on c1ccc(N2N=C(c3cccs3)CC2c2cccs2)cc1 (centres undefined) yielded a displacement of -9.7%. With Cc1ccccc1NC(=O)COc1ccccc1 the displacement was 12.4%. CCOc1ccc(Cc2c(O)n(-c3ccccc3)c(=S)[nH]c2=O)cc1 showed a displacement of -13.7%. With O=C(Nc1cccc(Cl)c1)[C@@H]1C2C=CC(C2)[C@@H]1C(=O)O (some centres undefined) the displacement was -13.5%. COc1cc(CNc2ccc(Br)c(C)c2)cc(OC)c1 gave a displacement of -6%. In the case of COc1cc(CN2CCN(Cc3ccccc3Br)CC2)cc(OC)c1, the displacement is reported as -12.8%. N#CCCN1CCN(C(CNS(=O)(=O)c2ccc(Cl)cc2)c2ccccc2)CC1 (centres undefined) gave a displacement of 10%. Cc1ccc(N(C)C)cc1NC(=O)CCC(=O)O gave a displacement of 7.9%. O=C(NC(C(=O)NC1CCCCC1)C12CC3CC(CC(C3)C1)C2)c1ccccc1 (centres undefined) gave a displacement of -0.6%. COc1ccc(NC(=O)c2cccc(F)c2)cc1Cl gave a displacement of -17.7%. With CCOC(=O)c1ccc(NC(=O)c2cc(-c3cccs3)nc3ccccc23)cc1 the displacement was 4.7%. Cc1ccc2cccc(SCC(=O)Nc3ccc(Br)cc3)c2n1 was tested, and the displacement was -2%. In the case of O=C(Nc1nc2sc3c(c2c(=O)s1)CCCC3)c1ccc([N+](=O)[O-])cc1, the displacement is reported as -13.5%. O=C(NC(=S)Nc1ccccc1)c1cccnc1 showed a displacement of -7.9%. CCCC1CCC(c2ccc(OCC)cc2)=CC1=O (centres undefined) gave a displacement of 6.3%. Compound O=C(O)c1cc(-c2cccs2)nc2ccccc12 has a displacement of 7.7%. Compound CCOC(=O)C1=C(N)OC2=C(C(=O)CC(C)(C)C2)C1c1ccc(Cl)c(Cl)c1 (centres undefined) has a displacement of 0.2%. For CCOc1ccc(N(CC(=O)Nc2c(C)cccc2C)S(=O)(=O)c2ccccc2)cc1, the displacement was -12.3%. Cn1c(=O)c([N+](=O)[O-])c(NCCc2ccccc2)c2ccccc21 showed a displacement of -8.2%. With Cc1ccc(S(=O)(=O)N2CCN(C(=O)c3cccc(F)c3)CC2)cc1 the displacement was -1.9%. With O=C(COc1ccccc1[N+](=O)[O-])Nc1ccc2oc(-c3cc(Br)ccc3Cl)nc2c1 the displacement was 16.2%. Compound CC(C)NC(=O)CN(Cc1ccccc1)S(=O)(=O)c1ccccc1 has a displacement of 3.9%. Cc1cc(C)cc(N2C(=O)C3C(c4ccccc4Cl)OC4(C(=O)c5ccccc5C4=O)C3C2=O)c1 (centres undefined) gave a displacement of 1.7%. Work on Cc1cccc(/C=N/N2CCN(Cc3ccccc3Cl)CC2)c1 yielded a displacement of -1%. COc1ccc(C=C2C(=O)N(c3ccccc3)C(=O)N(c3ccccc3)C2=O)cc1C(=O)O gave a displacement of 4.5%. With Nc1c(C(=O)c2ccc(Br)cc2)sc2nc(C(F)(F)F)c(C(=O)c3cccs3)cc12 the displacement was 51.1%. Work on CCOc1ccccc1N(CC(=O)Nc1ccccc1Br)S(=O)(=O)c1ccccc1 yielded a displacement of -3.5%. In the case of N/C(Cc1ccc([N+](=O)[O-])cc1)=N\OC(=O)c1ccc2ccccc2c1, the displacement is reported as 9%. For Brc1ccc(C2=CSC3=NCCN23)cc1, the displacement was 0%. In the case of O=C(Nc1cccc([N+](=O)[O-])c1)c1ccc2ccccc2n1, the displacement is reported as 35.2%. For O=C1N/C(=N/N=C\c2ccc(-c3ccc(Cl)cc3)o2)SC1Cc1ccccc1 (centres undefined), the displacement was 17%. O=C1NC(=O)C(=Cc2ccc(OC(=O)c3ccc(Cl)c(Cl)c3)cc2)C(=O)N1 gave a displacement of -10%. For Cc1ccc(C2([N+](=O)[O-])C(=O)c3ccccc3C2=O)cc1, the displacement was -7.9%. For Cc1ccc(S(=O)(=O)NC(=O)Nc2ccccc2I)cc1, the displacement was 17.8%. Work on O=C1/C(=C/c2c(Cl)cccc2Cl)SC(=S)N1CCc1ccccc1 yielded a displacement of 3.8%. With COc1ccc(C(=O)Nc2ccc(Br)c(C)c2)c(OC)c1 the displacement was 14.5%. C=CCn1c(CCCN2C(=O)c3cccc4cccc(c34)C2=O)nnc1SCC(=O)O showed a displacement of -1.7%. COc1ccc(OC)c(NC(=O)c2sc3ccccc3c2Cl)c1 gave a displacement of 17.2%. COc1ccc2c(c1C)CCC/C2=N\OC(=O)c1ccc([N+](=O)[O-])cc1 gave a displacement of -6.4%. In the case of CCOc1ccc(N(CC(=O)Nc2cccc(C(C)=O)c2)S(=O)(=O)c2ccc(Br)cc2)cc1, the displacement is reported as -2.3%. In the case of CCc1ccccc1N(CC(=O)Nc1ccc(I)cc1)S(C)(=O)=O, the displacement is reported as -9.2%. COCCOC(=O)C1=C(C)NC(=O)CC1c1ccccc1Br (centres undefined) was tested, and the displacement was 2.1%. With Cc1c(NC(=O)CSCC(=O)Nc2ccc3ccccc3c2)c(=O)n(-c2ccccc2)n1C the displacement was 8%. In the case of CCCCOc1ccc(NC(=O)c2cc3cc(Br)ccc3oc2=O)cc1, the displacement is reported as 10.3%. COc1ccccc1OCC(=O)Nc1sc2c(c1C(N)=O)CCC(C)C2 (centres undefined) showed a displacement of 2.6%. Compound c1ccc(-c2cn(-c3ccccc3)nc2-c2ccccc2)cc1 has a displacement of 14.1%. With COc1ccc(OCC(=O)Nc2ccc(OC)c(OC)c2)cc1 the displacement was -4.2%. For COCCOC(=O)c1c(C)oc2ccc(OS(C)(=O)=O)cc12, the displacement was 12.2%. O=c1[nH]c2ccc(Cl)cc2c(-c2ccccc2)c1N1CCOCC1 was tested, and the displacement was -27.7%. For Cc1[nH]c2c(Cl)cccc2c(=O)c1CN(C)Cc1ccccc1, the displacement was 8.7%. Compound CCCC(C(=O)O)N1C(=O)/C(=C\c2ccc(-c3ccc([N+](=O)[O-])cc3)o2)SC1=S (centres undefined) has a displacement of 0.3%. CCOC(=O)c1[nH]c(C)c(C(=O)C(C)CC)c1C (centres undefined) gave a displacement of -24.4%. CCSc1nnc2c(n1)OC(c1ccc(-c3ccc(Cl)cc3)o1)Nc1ccccc1-2 (centres undefined) was tested, and the displacement was 15.7%. With CC(C)CNC(=O)c1cccc(NC(=O)CSCc2ccccc2)c1 the displacement was -18.1%. For CCC(=O)OCCn1c(=O)c2ccccc2c2ccccc2c1=O, the displacement was 9%. Cc1ccc(OCC(O)Cn2cnc3cc(C)c(C)cc32)cc1 (centres undefined) was tested, and the displacement was -13.4%. With Cc1nnc(SC(=O)Cn2c3ccccc3c3ccccc32)s1 the displacement was 7.3%. With COc1ccc(C2/C(=C(\O)c3ccc(F)cc3)C(=O)C(=O)N2CCCCCC(=O)O)cc1 (centres undefined) the displacement was -10.6%. In the case of O=C(Nc1ccc(S(=O)(=O)N2CCOCC2)cc1)c1ccc(Br)s1, the displacement is reported as -3.3%. For Cc1[nH]n(-c2ccc([N+](=O)[O-])cc2)c(=O)c1/C=N/N1CCOCC1, the displacement was -4.9%. For CCCOc1ccccc1N/C(=N/S(=O)(=O)c1ccc(C)cc1)Nc1nc(C)cc(C)n1, the displacement was 12.1%. Cc1cc(/C=C(/C(=O)c2ccccc2)c2nc3ccccc3[nH]2)c(C)n1-c1ccccc1 gave a displacement of 0.7%. Work on CCOc1ccccc1NC(=O)C(=O)NCc1ccccn1 yielded a displacement of 6.9%. For CCOc1ccc(-n2c(-c3ccccc3)n[nH]c2=S)cc1, the displacement was -1.5%. COc1ccccc1C(=O)NCC(=O)O showed a displacement of 7.3%. For CCOc1cc(/C=C2/SC(=S)N(CC(=O)O)C2=O)ccc1OCc1ccc(Cl)cc1, the displacement was 12.7%. For COc1ccc(S(=O)(=O)N2CCC(C(=O)O)CC2)cc1C(=O)O, the displacement was 10.3%. Compound CCOC(=O)C(CCOc1c(C)cc(C)cc1Cl)C(=O)OCC has a displacement of -2.9%. For Cc1nnc(N/N=C/c2ccc(O)cc2)[nH]c1=O, the displacement was -1.1%. COc1ccc(C(C)=O)cc1N1C(=O)C2C3C=CC(C3=C(C)C)C2C1=O (centres undefined) was tested, and the displacement was -4.6%. Work on Cc1cc(OCc2nc(-c3ccc(Cl)cc3Cl)no2)ccc1Br yielded a displacement of -4.5%. COc1ccc(C2C(C#N)=C(N)Oc3c2c(C)nn3-c2ccccc2)cc1OC (centres undefined) gave a displacement of -9.5%. Work on COc1cc(/C=C2/SC(=S)N(C)C2=O)ccc1OCCOc1ccc([N+](=O)[O-])cc1 yielded a displacement of 74.5%. For C=CCNC(=O)c1cccc(OCc2ccccc2)c1, the displacement was 11.6%. For Cc1cccc(C)c1NC(=O)C12CC3CC(CC(C3)C1)C2, the displacement was -2.1%. COc1ccc(CC(=O)Nc2oc(-c3ccccc3)c(-c3ccccc3)c2C#N)cc1 showed a displacement of -4%. In the case of Cc1ccc(OCCNC(=O)c2ccc(Br)cc2)cc1, the displacement is reported as 16.1%. Cc1cccc(C)c1NC(=O)CN(c1cccc([N+](=O)[O-])c1)S(=O)(=O)c1ccccc1 was tested, and the displacement was 5%. COc1ccc(/C=C2/SC(N3CCCCC3)=NC2=O)cc1 showed a displacement of 8.4%. CC(=O)NC1=C(C(C)=O)C2C(C1)C2(C)C (centres undefined) showed a displacement of 16.4%. In the case of C/C(=C\C(=O)c1ccc(Br)cc1)Nc1cccc(O)c1, the displacement is reported as 7.4%. For O=C(c1ccc(Cl)cc1)N1N=C(c2cccc([N+](=O)[O-])c2)CC1(O)C(F)(F)F (centres undefined), the displacement was 10%. With CCN(CC)C(=O)c1sc(NC(=O)COc2ccc(Cl)cc2)c(C(=O)OC(C)C)c1C the displacement was -4.5%. With CCOC(=O)c1c(N)c(C#N)c(C)n1-c1ccc(Br)cc1 the displacement was -11.6%. Cc1ccc(-c2cc3nc(C)c(C)c(C(C)(C)C)n3n2)cc1 showed a displacement of -4%. COc1cc(C(=O)N2c3ccc(C)cc3-c3c(ssc3=S)C2(C)C)cc(OC)c1OC showed a displacement of -11%. Compound CCCCc1ccc(/C=N/Nc2ccc([N+](=O)[O-])cc2)s1 has a displacement of -17.2%. Cc1ccc(C)c(NC(=O)c2cccc(F)c2)c1 was tested, and the displacement was 2.6%. Work on CN(C)C(=O)NC(NC(=O)N(C)C)C(=O)c1ccccc1 yielded a displacement of 9.4%. COc1ccc(Cl)cc1C(=O)N1CCN(c2ccccc2)CC1 gave a displacement of 6.6%. With Cc1cccc(-n2c(C)cc(/C=C3/SC(=S)NC3=O)c2C)c1 the displacement was -14.4%. In the case of O=C(c1cc(F)c(F)cc1Cl)N1CCN(c2ccc([N+](=O)[O-])c3cccnc23)CC1, the displacement is reported as 5.9%. With O=C(Nc1cccc(C(F)(F)F)c1)C1CC(=O)N(c2ccccc2)C1 (centres undefined) the displacement was 6.1%. For Cc1ccccc1NC(=O)CSCc1ccccc1, the displacement was 7.6%. C=CCc1cccc(/C=N/n2c(C)nnc2C)c1O was tested, and the displacement was -12.1%. COC(=O)c1ccc(NC(=S)NC(=O)c2ccc(F)cc2)cc1 was tested, and the displacement was 8%. O=[N+]([O-])c1ccc(-c2ccc(C(=S)N3CCOCC3)o2)cc1 gave a displacement of 7.7%. Compound CC(NC(=O)CCN1C(=O)c2ccccc2C1=O)c1ccccc1 (centres undefined) has a displacement of 0.9%. Work on CC(C)CCNC(=O)Cc1ccccc1[N+](=O)[O-] yielded a displacement of 5.5%. Work on O=S(=O)(Nc1nc2ccccc2nc1Nc1ccccc1)c1ccccc1 yielded a displacement of 16.9%. In the case of CCN1C(=O)/C(=C/c2ccc(I)cc2)SC1=S, the displacement is reported as 9.5%. O=C(Nc1cccc2ccccc12)c1cccc(I)c1 was tested, and the displacement was 10.2%. O=C(N/C(=C/c1ccco1)C(=O)N1CCCCCC1)c1cccs1 showed a displacement of 4.9%.
